{
  "source": "the supplement of paper PMC8728848",
  "binders": {"B1": {"name": "XCL (Xerocomus chrysenteron) (protein)", "chain": "MSYSITLRVYQTNRDRGYFSIVEKTVWHFANGGTWSEANGAHTLTQGGSGTSGVLRFLSTKGERITVAVGVHNYKRWCDVVTGLKPDETALVINPQYYNNGGRDYVREKQLAEYSVTSAIGTKVEVVYTVAEGNNLEANVIFS"}},
  "assay_in_all_cases": "glycan array binding signal (z-score within array); higher = stronger binding",
  "settings_in_all_cases": "glycan notation: IUPAC condensed, linker removed",
  "key": {"[1]": {"target": "Man(a1-2)Man(a1-6)[Man(a1-3)]Man(a1-6)[Man(a1-2)Man(a1-2)Man(a1-3)]Man(b1-4)GlcNAc(b1-4)GlcNAc", "summary_of_the_method": "(§1)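 Glycan array data came from 3228 arrays in the Consortium for Functional Glycomics database, and only arrays with an available protein sequence were kept. Glycan names were put into IUPAC-condensed notation, and columns mapping to the same glycan were averaged. The binding signal is a within-array Z-score, averaged across arrays of one protein sequence run at different concentrations or buffers and across linkers. A negative Z-score can be read as non-binding.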"}, "Man(a1-3)[Man(a1-6)]Man": {"target": "Man(a1-3)[Man(a1-6)]Man", "summary_of_the_method": "as §1"}, "[2]": {"target": "Man(a1-3)[Man(a1-6)]Man(a1-6)[Man(a1-2)Man(a1-3)]Man(b1-4)GlcNAc(b1-4)GlcNAc", "summary_of_the_method": "as §1"}, "[3]": {"target": "Man(a1-3)[Man(a1-6)]Man(a1-6)[Man(a1-3)]Man", "summary_of_the_method": "as §1"}, "[4]": {"target": "Man(a1-3)[Man(a1-6)]Man(a1-6)[Man(a1-3)]Man(b1-4)GlcNAc(b1-4)GlcNAc", "summary_of_the_method": "as §1"}, "[5]": {"target": "Man(a1-3)[Man(a1-6)]Man(b1-4)GlcNAc(b1-4)GlcNAc", "summary_of_the_method": "as §1"}, "Man(a1-6)Man": {"target": "Man(a1-6)Man", "summary_of_the_method": "as §1"}, "Man(b1-4)GlcNAc": {"target": "Man(b1-4)GlcNAc", "summary_of_the_method": "as §1"}, "Neu5Ac(a2-3)Gal": {"target": "Neu5Ac(a2-3)Gal", "summary_of_the_method": "as §1"}, "[6]": {"target": "Neu5Ac(a2-3)Gal(b1-3)GalNAc", "summary_of_the_method": "as §1"}, "[7]": {"target": "Neu5Ac(a2-3)Gal(b1-3)GalNAc(b1-3)Gal(a1-4)Gal(b1-4)Glc", "summary_of_the_method": "as §1"}, "[8]": {"target": "Neu5Ac(a2-3)Gal(b1-3)GalNAc(b1-4)[Neu5Ac(a2-3)]Gal(b1-4)Glc", "summary_of_the_method": "as §1"}, "[9]": {"target": "Neu5Ac(a2-3)Gal(b1-3)GalNAc(b1-4)[Neu5Ac(a2-8)Neu5Ac(a2-3)]Gal(b1-4)Glc", "summary_of_the_method": "as §1"}, "[10]": {"target": "Neu5Ac(a2-3)Gal(b1-3)GalNAc6S", "summary_of_the_method": "as §1"}, "[11]": {"target": "Neu5Ac(a2-3)Gal(b1-3)GlcNAc", "summary_of_the_method": "as §1"}, "[12]": {"target": "Neu5Ac(a2-3)Gal(b1-3)GlcNAc(b1-3)Gal(b1-3)GlcNAc", "summary_of_the_method": "as §1"}, "[13]": {"target": "Neu5Ac(a2-3)Gal(b1-3)GlcNAc(b1-3)Gal(b1-4)GlcNAc", "summary_of_the_method": "as §1"}, "[14]": {"target": "Neu5Ac(a2-3)Gal(b1-3)GlcNAc(b1-3)GalNAc", "summary_of_the_method": "as §1"}, "[15]": {"target": "Neu5Ac(a2-3)Gal(b1-3)GlcNAc6S", "summary_of_the_method": "as §1"}, "[16]": {"target": "Neu5Ac(a2-3)Gal(b1-3)[Fuc(a1-4)]GlcNAc", "summary_of_the_method": "as §1"}, "[17]": {"target": "Neu5Ac(a2-3)Gal(b1-3)[Fuc(a1-4)]GlcNAc(b1-3)Gal(b1-3)[Fuc(a1-4)]GlcNAc", "summary_of_the_method": "as §1"}, "[18]": {"target": "Neu5Ac(a2-3)Gal(b1-3)[Fuc(a1-4)]GlcNAc(b1-3)Gal(b1-4)[Fuc(a1-3)]GlcNAc", "summary_of_the_method": "as §1"}, "[19]": {"target": "Neu5Ac(a2-3)Gal(b1-3)[Neu5Ac(a2-3)Gal(b1-4)]GlcNAc", "summary_of_the_method": "as §1"}, "[20]": {"target": "Neu5Ac(a2-3)Gal(b1-3)[Neu5Ac(a2-6)]GalNAc", "summary_of_the_method": "as §1"}, "Neu5Ac(a2-3)Gal(b1-4)Glc": {"target": "Neu5Ac(a2-3)Gal(b1-4)Glc", "summary_of_the_method": "as §1"}, "[21]": {"target": "Neu5Ac(a2-3)Gal(b1-4)GlcNAc", "summary_of_the_method": "as §1"}, "[22]": {"target": "Neu5Ac(a2-3)Gal(b1-4)GlcNAc(b1-2)Man(a1-3)[GlcNAc(b1-2)Man(b1-4)GlcNAc(b1-2)Man(a1-6)]Man(b1-4)GlcNAc(b1-4)GlcNAc", "summary_of_the_method": "as §1"}, "[23]": {"target": "Neu5Ac(a2-3)Gal(b1-4)GlcNAc(b1-2)Man(a1-3)[Neu5Ac(a2-6)Gal(b1-4)GlcNAc(b1-2)Man(a1-6)]Man(b1-4)GlcNAc(b1-4)GlcNAc", "summary_of_the_method": "as §1"}, "[24]": {"target": "Neu5Ac(a2-3)Gal(b1-4)GlcNAc(b1-3)Gal", "summary_of_the_method": "as §1"}, "[25]": {"target": "Neu5Ac(a2-3)Gal(b1-4)GlcNAc(b1-3)Gal(b1-3)GlcNAc", "summary_of_the_method": "as §1"}, "[26]": {"target": "Neu5Ac(a2-3)Gal(b1-4)GlcNAc(b1-3)Gal(b1-4)GlcNAc", "summary_of_the_method": "as §1"}, "[27]": {"target": "Neu5Ac(a2-3)Gal(b1-4)GlcNAc(b1-3)Gal(b1-4)GlcNAc(b1-3)Gal(b1-4)GlcNAc", "summary_of_the_method": "as §1"}, "[28]": {"target": "Neu5Ac(a2-3)Gal(b1-4)GlcNAc(b1-3)Gal(b1-4)[Fuc(a1-3)]GlcNAc", "summary_of_the_method": "as §1"}},
  "note": "Some of the results follow.",
  "data": [
    {"binder": "B1", "values": [
      {"measurement": "glycan array binding signal (z-score)", "setting": "[1]", "result": -0.305},
      {"measurement": "glycan array binding signal (z-score)", "setting": "Man(a1-3)[Man(a1-6)]Man", "result": -0.318},
      {"measurement": "glycan array binding signal (z-score)", "setting": "[2]", "result": -0.325},
      {"measurement": "glycan array binding signal (z-score)", "setting": "[3]", "result": -0.331},
      {"measurement": "glycan array binding signal (z-score)", "setting": "[4]", "result": -0.315},
      {"measurement": "glycan array binding signal (z-score)", "setting": "[5]", "result": -0.204},
      {"measurement": "glycan array binding signal (z-score)", "setting": "Man(a1-6)Man", "result": -0.32},
      {"measurement": "glycan array binding signal (z-score)", "setting": "Man(b1-4)GlcNAc", "result": -0.321},
      {"measurement": "glycan array binding signal (z-score)", "setting": "Neu5Ac(a2-3)Gal", "result": -0.321},
      {"measurement": "glycan array binding signal (z-score)", "setting": "[6]", "result": 1.97},
      {"measurement": "glycan array binding signal (z-score)", "setting": "[7]", "result": -0.308},
      {"measurement": "glycan array binding signal (z-score)", "setting": "[8]", "result": -0.32},
      {"measurement": "glycan array binding signal (z-score)", "setting": "[9]", "result": -0.311},
      {"measurement": "glycan array binding signal (z-score)", "setting": "[10]", "result": 3.87},
      {"measurement": "glycan array binding signal (z-score)", "setting": "[11]", "result": -0.308},
      {"measurement": "glycan array binding signal (z-score)", "setting": "[12]", "result": -0.327},
      {"measurement": "glycan array binding signal (z-score)", "setting": "[13]", "result": -0.267},
      {"measurement": "glycan array binding signal (z-score)", "setting": "[14]", "result": -0.266},
      {"measurement": "glycan array binding signal (z-score)", "setting": "[15]", "result": -0.314},
      {"measurement": "glycan array binding signal (z-score)", "setting": "[16]", "result": -0.324},
      {"measurement": "glycan array binding signal (z-score)", "setting": "[17]", "result": -0.24},
      {"measurement": "glycan array binding signal (z-score)", "setting": "[18]", "result": -0.271},
      {"measurement": "glycan array binding signal (z-score)", "setting": "[19]", "result": -0.317},
      {"measurement": "glycan array binding signal (z-score)", "setting": "[20]", "result": 1.25},
      {"measurement": "glycan array binding signal (z-score)", "setting": "Neu5Ac(a2-3)Gal(b1-4)Glc", "result": -0.308},
      {"measurement": "glycan array binding signal (z-score)", "setting": "[21]", "result": -0.303},
      {"measurement": "glycan array binding signal (z-score)", "setting": "[22]", "result": -0.323},
      {"measurement": "glycan array binding signal (z-score)", "setting": "[23]", "result": -0.32},
      {"measurement": "glycan array binding signal (z-score)", "setting": "[24]", "result": -0.214},
      {"measurement": "glycan array binding signal (z-score)", "setting": "[25]", "result": -0.312},
      {"measurement": "glycan array binding signal (z-score)", "setting": "[26]", "result": -0.318},
      {"measurement": "glycan array binding signal (z-score)", "setting": "[27]", "result": -0.329},
      {"measurement": "glycan array binding signal (z-score)", "setting": "[28]", "result": -0.317}
    ]}
  ]
}
